# The supplement of paper PMC8728848
# Some of the results follow.
# B1: F17bG (Escherichia coli), Q47200 (protein)
# chain: MTNFYKVFLAVFILVCCNISHAVVSFIGSTENDVGPSQGSYSSTHAMDNLPFVYNTGYNIGYQNANVWRIGGGFCVGLDGKVDLPVVGSLDGQSIYGLTEEVGLLIWMGDTNYSRGTAMSGNSWENVFSGWCVGNYLSTQGLSVHVRPVILKRNSSAQYSVQKTSIGSIRMRPYNGSSAGSVQTTVNFSLNPFTLNDTVTSCRLLTPSAVNVSLAAISAGQLPSSGDEVVAGTTSLKLQCDAGVTVWATLTDATTPSNRSDILTLTGASTATGVGLRIYKNTDSTPLKFGPDSPVKGNENQWQLSTGTETSPSVRLYVKYVNTGEGINPGTVNGISTFTFSYQ
# What was measured:
# Test in all cases: glycan array binding signal (z-score within array); higher = stronger binding
# Conditions in all cases: glycan notation: IUPAC condensed, linker removed
# [1] = target: Fuc(a1-2)Gal
# Outline: (§1)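 Arrays were curated from the Consortium for Functional Glycomics database, 3228 in total, and kept only where the protein sequence was available. Binding is expressed as a within-array Z-score. This score was averaged across arrays of the same protein sequence at different concentrations or buffers and across linkers, and negative values can be read as non-binding.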
# [2] = target: Fuc(a1-2)Gal(b1-3)GalNAc
# Outline: as §1
# [3] = target: Fuc(a1-2)Gal(b1-3)GalNAc(b1-3)Gal
# Outline: as §1
# [4] = target: Fuc(a1-2)Gal(b1-3)GalNAc(b1-3)Gal(a1-4)Gal(b1-4)Glc
# Outline: as §1
# [5] = target: Fuc(a1-2)Gal(b1-3)GalNAc(b1-4)[Neu5Ac(a2-3)]Gal(b1-4)Glc
# Outline: as §1
# [6] = target: Fuc(a1-2)Gal(b1-3)GlcNAc
# Outline: as §1
# [7] = target: Fuc(a1-2)Gal(b1-3)GlcNAc(b1-3)Gal(b1-4)Glc
# Outline: as §1
# [8] = target: Fuc(a1-2)Gal(b1-3)[Fuc(a1-4)]GlcNAc
# Outline: as §1
# [9] = target: Fuc(a1-2)Gal(b1-4)Glc
# Outline: as §1
# [10] = target: Fuc(a1-2)Gal(b1-4)GlcNAc
# Outline: as §1
# [11] = target: Fuc(a1-2)Gal(b1-4)GlcNAc(b1-3)Gal(b1-4)GlcNAc
# Outline: as §1
# [12] = target: Fuc(a1-2)Gal(b1-4)GlcNAc(b1-3)Gal(b1-4)GlcNAc(b1-3)Gal(b1-4)GlcNAc
# Outline: as §1
# [13] = target: Fuc(a1-2)Gal(b1-4)[Fuc(a1-3)]GlcNAc
# Outline: as §1
# [14] = target: Fuc(a1-2)Gal(b1-4)[Fuc(a1-3)]GlcNAc(b1-3)Gal(b1-4)[Fuc(a1-3)]GlcNAc
# Outline: as §1
# [15] = target: Fuc(a1-2)Gal(b1-4)[Fuc(a1-3)]GlcNAc(b1-3)Gal(b1-4)[Fuc(a1-3)]GlcNAc(b1-3)Gal(b1-4)[Fuc(a1-3)]GlcNAc
# Outline: as §1
# [16] = target: Fuc(a1-2)GlcNAc
# Outline: as §1
# [17] = target: Fuc(a1-2)[Gal(a1-3)]Gal
# Outline: as §1
# [18] = target: Fuc(a1-2)[Gal(a1-3)]Gal(b1-3)GlcNAc
# Outline: as §1
# [19] = target: Fuc(a1-2)[Gal(a1-3)]Gal(b1-4)Glc
# Outline: as §1
# [20] = target: Fuc(a1-2)[Gal(a1-3)]Gal(b1-4)GlcNAc
# Outline: as §1
# [21] = target: Fuc(a1-2)[Gal(a1-3)]Gal(b1-4)[Fuc(a1-3)]GlcNAc
# Outline: as §1
# [22] = target: Fuc(a1-2)[Gal(a1-4)]Gal(b1-4)GlcNAc
# Outline: as §1
# [23] = target: Fuc(a1-2)[GalNAc(a1-3)]Gal
# Outline: as §1
# [24] = target: Fuc(a1-2)[GalNAc(a1-3)]Gal(b1-3)GlcNAc
# Outline: as §1
# [25] = target: Fuc(a1-2)[GalNAc(a1-3)]Gal(b1-4)Glc
# Outline: as §1
# [26] = target: Fuc(a1-2)[GalNAc(a1-3)]Gal(b1-4)GlcNAc
# Outline: as §1
# [27] = target: Fuc(a1-2)[GalNAc(a1-3)]Gal(b1-4)[Fuc(a1-3)]GlcNAc
# Outline: as §1
# [28] = target: Fuc(a1-2)[GalNAc(a1-4)]Gal(b1-4)GlcNAc
# Outline: as §1
# [29] = target: Fuc(a1-2)[GalNAc(b1-3)]Gal
# Outline: as §1
# [30] = target: Fuc(a1-3)GlcNAc
# Outline: as §1
# [31] = target: Fuc(a1-3)[Gal(b1-4)]GlcNAc
# Outline: as §1
# [32] = target: Fuc(a1-3)[Gal(b1-4)]GlcNAc(b1-4)Gal(b1-4)[Fuc(a1-3)]GlcNAc
# Outline: as §1
# [33] = target: Fuc(a1-3)[Gal(b1-4)]GlcNAc(b1-4)Gal(b1-4)[Fuc(a1-3)]GlcNAc(b1-4)Gal(b1-4)[Fuc(a1-3)]GlcNAc
# Outline: as §1
# [34] = target: Fuc(a1-3)[Gal3S(b1-4)]GlcNAc
# Outline: as §1
# [35] = target: Fuc(a1-3)[GalNAc(b1-4)]GlcNAc
# Outline: as §1
# [36] = target: Fuc(a1-4)GlcNAc
# Outline: as §1
# [37] = target: Fuc(b1-3)GlcNAc
# Outline: as §1
# [38] = target: Gal(a1-2)Gal
# Outline: as §1
# [39] = target: Gal(a1-3)Gal
# Outline: as §1
# [40] = target: Gal(a1-3)Gal(b1-3)GlcNAc
# Outline: as §1
# [41] = target: Gal(a1-3)Gal(b1-4)Glc
# Outline: as §1
# [42] = target: Gal(a1-3)Gal(b1-4)GlcNAc
# Outline: as §1
# [43] = target: Gal(a1-3)Gal(b1-4)[Fuc(a1-3)]GlcNAc
# Outline: as §1
# [44] = target: Gal(a1-3)GalNAc
# Outline: as §1
# [45] = target: Gal(a1-3)[Gal(a1-4)]Gal(b1-4)GlcNAc
# Outline: as §1
binder,measurement,setting,value
B1,glycan array binding signal (z-score),[1],-0.621
same,glycan array binding signal (z-score),[2],-0.606
same,glycan array binding signal (z-score),[3],-0.486
same,glycan array binding signal (z-score),[4],-0.546
same,glycan array binding signal (z-score),[5],-0.371
same,glycan array binding signal (z-score),[6],-0.591
same,glycan array binding signal (z-score),[7],-0.54
same,glycan array binding signal (z-score),[8],-0.669
same,glycan array binding signal (z-score),[9],-0.674
same,glycan array binding signal (z-score),[10],-0.624
same,glycan array binding signal (z-score),[11],-0.65
same,glycan array binding signal (z-score),[12],-0.525
same,glycan array binding signal (z-score),[13],-0.545
same,glycan array binding signal (z-score),[14],-0.635
same,glycan array binding signal (z-score),[15],-0.549
same,glycan array binding signal (z-score),[16],-0.636
same,glycan array binding signal (z-score),[17],-0.551
same,glycan array binding signal (z-score),[18],-0.644
same,glycan array binding signal (z-score),[19],-0.576
same,glycan array binding signal (z-score),[20],-0.346
same,glycan array binding signal (z-score),[21],-0.631
same,glycan array binding signal (z-score),[22],-0.657
same,glycan array binding signal (z-score),[23],-0.609
same,glycan array binding signal (z-score),[24],-0.567
same,glycan array binding signal (z-score),[25],-0.624
same,glycan array binding signal (z-score),[26],-0.579
same,glycan array binding signal (z-score),[27],-0.58
same,glycan array binding signal (z-score),[28],-0.634
same,glycan array binding signal (z-score),[29],-0.63
same,glycan array binding signal (z-score),[30],-0.645
same,glycan array binding signal (z-score),[31],-0.597
same,glycan array binding signal (z-score),[32],-0.046
same,glycan array binding signal (z-score),[33],-0.507
same,glycan array binding signal (z-score),[34],-0.137
same,glycan array binding signal (z-score),[35],-0.574
same,glycan array binding signal (z-score),[36],-0.562
same,glycan array binding signal (z-score),[37],-0.581
same,glycan array binding signal (z-score),[38],-0.473
same,glycan array binding signal (z-score),[39],-0.679
same,glycan array binding signal (z-score),[40],-0.608
same,glycan array binding signal (z-score),[41],-0.565
same,glycan array binding signal (z-score),[42],-0.599
same,glycan array binding signal (z-score),[43],-0.563
same,glycan array binding signal (z-score),[44],-0.482
same,glycan array binding signal (z-score),[45],-0.266
